Reference: the supplement of paper PMC10338343
± gives the standard deviation. The entries are a selection whose mix differs from that of the whole data set.

What follows are sequences tested on MIWI (PIWIL1) piRISC loaded with L1MC piRNA (30 nt) (assay: pre-steady-state target cleavage rate (min^-1); MIWI and MILI are mouse PIWI proteins and EfPiwi is from a freshwater sponge; tags in brackets are library labels; higher = faster piRNA-guided slicing of the target). Settings: guide: L1MC piRNA 5'p-UAACUAAAUACUAUGCAAGCUGUAGGUCCU; auxiliary factor: 500 nM mouse GTSF1.
Procedure, shortened: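 Cleave-'n-Seq: 1 nM active affinity-purified piRISC with one synthetic guide and 0.1 nM transcribed, DNA-blocked target RNA library were mixed, with or without 500 nM GTSF1 partner protein, in HEPES–potassium acetate buffer at 33 °C for 0–8 or 0–960 min. Uncleaved targets were sequenced and normalised to depth and to weakly complementary targets, three trials were pooled, and k3 was capped at 0.0001 min^-1. The pre-steady-state cleavage rate was fitted […].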

Sequence	pre-steady-state target cleavage rate
UCCUGGAACGCUUGCAUAGUAUUUAGUUA	0.919 ± 0.034
UCCACCUACAGCUUGGAUAGUAUUUAGUAA	0.747 ± 0.054
UCCUGGAAGUGCUUGCAUAGUAUUUAGUAA	0.225 ± 0.03
UCCUCGUACAGCAUGCAUAGUAUUUAGUUA	1.28 ± 0.064
AGGAGGAACAGCUUGCAUAGUAUUUAGUAA	0.874 ± 0.092
UCCUGCUACAGGUUGCAUAGAAUUUAGUUA	0.314 ± 0.034
UCCUGGAACAGCUUGCAUUGUAUUAAGUUA	0.376 ± 0.039
UGCAGCUACAGCUUGCAUAGUAUUUAGUUA	1.21 ± 0.081
UCCUGGAACAGCUUGCACAGUAUUUAGUUA	1.01 ± 0.035
UCCUGGUACAGCAUGCAUAGAAUUUAGUUA	0.517 ± 0.11
UCCUGGAUCAGCUUGGUUAGUAUUUAGUAA	0.389 ± 0.058
UCGACCUACAGCUUGCAUAGUUAUUAGUAA	0.159 ± 0.025
AGGACCUACACCUUGCAUAGUAUUUACUUA	0.381 ± 0.057
UCGAGCUACAGCUUGCAUAGUAUAUAGUUA	0.902 ± 0.056
UCCACCUACAGCUUGCAUUGUAUUUAGUAA	0.317 ± 0.026
UGGACCUACAGCUUGGAUAGUAUUUUGUUA	0.796 ± 0.065

Same assay, conditions: guide: L1MC piRNA 5'p-UAACUAAAUACUAUGCAAGCUGUAGGUCCU; auxiliary factor: none (no GTSF1)

Sequence	pre-steady-state target cleavage rate
UCGACCUACAGCUUGCAUAGUUUUUAGAUA	0.0165 ± 0.0047
UCCUGGAACGGCUUGCAUAGUAUUUAGUUA	0.0613 ± 0.012
UCCACCUACACCUUGCAUAGAAUUUAGUUA	0.0107 ± 0.003
UCCUGGUACAGCUUGCAUGUAUUUAGUUA	0.00745 ± 0.0029
UCCUGGAUGAGCUUGCAUAGUAUUCUAGUUA	0.0103 ± 0.0031
UCCUGGAACAGCUAGCAUAGUAUAUAGUUA	0.0104 ± 0.0033
UCCUCCUACAGCUUGCAAAGAAUUUAGUUA	0.00777 ± 0.0035
UCCACCUACAGCUUGCAUAGUAUUUUCUUA	0.0112 ± 0.0039
UCCUGGUUCAGCUUGCAUAGAAUUUAGUUA	0.025 ± 0.0067
UCCUCCUACAGCUUGCAUAGUUAUUAGUUA	0.0115 ± 0.0017
UCCUGGUACAGCUUGCAUAGUAUUUAGUGUA	0.0278 ± 0.0061
UCCUGGAUGAGCUUGCAUAGUAUAUUAGUUA	0.00823 ± 0.004
UCCUGGAUGAGCUUGCAUAGUAUUUAUGUUA	0.0182 ± 0.0042
UCCUGGUACAGCUUGCAUAGUAUUUAGUAUA	0.00784 ± 0.0025
UCCUGGUACAGCUUGCAUAGUAUUUUAGUUA	0.0117 ± 0.0026
UCCUGGAUGAGUCUUGCAUAGUAUUUAGUUA	0.0183 ± 0.0044
AGGACCUACAGCUUGCAUAGUAUUUUCUAA	0.0121 ± 0.0048
AGGACCUACAGCUUGCAUAGUAUAAUGUUA	0.0308 ± 0.0064
UCCUGCUACAGCUAGCAUAGUAUUUACUUA	0.0072 ± 0.0023
AGGACCUACAGCAUGCAUAGUAUUUAGUAA	0.0556 ± 0.014

Sequence	pre-steady-state target cleavage rate
UCCUGGAUGUGGCUUGCAUAGUAUUUAGUUA	0.0624 ± 0.015
UCCUGGAUGAGCUUGCAUAGUUUUUAGUUA	0.0303 ± 0.008
AGGAGGUACAGCUUGCAUAGUAUUUACAAA	0.00731 ± 0.0023
UCGACCUACAGCUUGCAUAGUAAUUAGUAA	0.0173 ± 0.0047
UCCUGGAACGCUUGCAUAGUAUUUAGUUA	0.0392 ± 0.0097
UCCACCUACAGCUUGGAUAGUAUUUAGUAA	0.0244 ± 0.0052
UCCUGGAAGUGCUUGCAUAGUAUUUAGUAA	0.0148 ± 0.0051
UCCUCGUACAGCAUGCAUAGUAUUUAGUUA	0.0195 ± 0.0041
AGGAGGAACAGCUUGCAUAGUAUUUAGUAA	0.0441 ± 0.0083
UCCUGCUACAGGUUGCAUAGAAUUUAGUUA	0.0168 ± 0.0057
UCCUGGAACAGCUUGCAUUGUAUUAAGUUA	0.0147 ± 0.0063
UGCAGCUACAGCUUGCAUAGUAUUUAGUUA	0.0733 ± 0.013
UCCUGGAACAGCUUGCACAGUAUUUAGUUA	0.0853 ± 0.018
UCCUGGUACAGCAUGCAUAGAAUUUAGUUA	0.00617 ± 0.0027
UCCUGGAUCAGCUUGGUUAGUAUUUAGUAA	0.00325 ± 0.0024
UCGACCUACAGCUUGCAUAGUUAUUAGUAA	0.00436 ± 0.0022
AGGACCUACACCUUGCAUAGUAUUUACUUA	0.0485 ± 0.0091
UCGAGCUACAGCUUGCAUAGUAUAUAGUUA	0.0311 ± 0.0077
UCCACCUACAGCUUGCAUUGUAUUUAGUAA	0.0111 ± 0.0025
UGGACCUACAGCUUGGAUAGUAUUUUGUUA	0.0317 ± 0.0053
